Article PMC4336329 (PLoS ONE, 2015)
Hit rate of the full screen: of about 310,000 compounds, about 14,000 (4.5%) showed an effect of 50% or more. Effects have a minus sign here. The list shows a part of the results.

What follows are compounds tested against human ether-à-go-go-related gene (hERG) potassium channel (human, UniProt Q12809) (assay: primary screen, population patch clamp on CHO cells stably expressing hERG).
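Note: peak tail current of the secondary pulse compared with the same well before compound.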

Sequence of human ether-à-go-go-related gene (hERG) potassium channel (Q12809 whole entry, looked up): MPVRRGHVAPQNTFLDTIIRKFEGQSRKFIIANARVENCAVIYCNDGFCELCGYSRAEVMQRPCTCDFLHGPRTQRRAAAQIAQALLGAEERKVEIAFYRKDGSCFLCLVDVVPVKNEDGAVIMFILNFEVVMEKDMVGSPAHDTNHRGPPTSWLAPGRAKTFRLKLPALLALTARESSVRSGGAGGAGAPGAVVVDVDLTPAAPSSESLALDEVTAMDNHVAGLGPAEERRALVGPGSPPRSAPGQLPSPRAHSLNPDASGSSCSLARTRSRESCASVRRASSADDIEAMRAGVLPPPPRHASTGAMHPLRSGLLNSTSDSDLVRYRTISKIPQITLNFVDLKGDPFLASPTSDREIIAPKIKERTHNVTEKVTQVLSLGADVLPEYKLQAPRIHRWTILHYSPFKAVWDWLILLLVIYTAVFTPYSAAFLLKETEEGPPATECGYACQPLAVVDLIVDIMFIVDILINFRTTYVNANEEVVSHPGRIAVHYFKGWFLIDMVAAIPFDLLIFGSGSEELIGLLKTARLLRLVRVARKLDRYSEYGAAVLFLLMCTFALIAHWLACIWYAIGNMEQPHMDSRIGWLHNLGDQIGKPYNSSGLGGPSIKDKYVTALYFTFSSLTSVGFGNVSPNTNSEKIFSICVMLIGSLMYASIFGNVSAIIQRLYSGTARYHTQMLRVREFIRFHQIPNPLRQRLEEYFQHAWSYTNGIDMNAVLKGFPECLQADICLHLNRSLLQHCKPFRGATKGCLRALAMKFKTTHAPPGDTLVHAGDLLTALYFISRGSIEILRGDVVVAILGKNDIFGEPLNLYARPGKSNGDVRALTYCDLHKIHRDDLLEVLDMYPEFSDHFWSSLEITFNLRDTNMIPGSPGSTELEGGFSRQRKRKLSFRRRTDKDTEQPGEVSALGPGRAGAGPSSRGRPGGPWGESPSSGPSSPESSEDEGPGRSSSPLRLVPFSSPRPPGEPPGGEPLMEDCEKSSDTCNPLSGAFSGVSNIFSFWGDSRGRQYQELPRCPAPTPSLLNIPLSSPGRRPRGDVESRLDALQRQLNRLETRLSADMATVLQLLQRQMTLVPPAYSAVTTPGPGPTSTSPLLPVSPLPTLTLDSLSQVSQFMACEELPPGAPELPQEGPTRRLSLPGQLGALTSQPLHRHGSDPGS

SMILES	hERG current change (%, negative = inhibition) at 10uM [%]
CCOC(=O)Cc1csc(NC(=O)C(C)Oc2ccc3c(C)cc(=O)oc3c2)n1 (stereo not shown)	-35.2
CC1(C)NC(=O)N(CCCOc2ccccc2Br)C1=O	6.22
COc1ccc(NC(=O)CC#N)cc1OC	9.19
C=CCNC(=S)NNc1nc2c(c(=O)[nH]1)C1(CCCCC1)Cc1ccccc1-2	13.7
CC(NC(=O)C1(C)CC1(Br)Br)C(C)(C)C (stereo not shown)	-19.1
O=C(NCCc1c[nH]c2ccccc12)C(=O)NCC1OCCN1S(=O)(=O)c1ccc(Cl)cc1 (stereo not shown)	-15.9
N#C/C(=C\c1ccc(OC(=O)c2cccs2)cc1)c1nc2ccccc2[nH]1	10.8
O=C(Nc1ccccc1C(=O)O)c1ccc2ccccc2n1	18.9
Cc1ccc(NC(=S)NC(C)(C)C)c([N+](=O)[O-])c1	13.6
Cc1cccc(C(=O)Nc2ccc(C(=O)N/N=C/c3ccc4c(c3)OCO4)cc2)c1	17.4
O=c1[nH]n2c(=O)c3c([nH]c2c1N=Nc1cccc(Cl)c1)CCCC3	3.75
CCCCOc1ccccc1C(=O)NCCCCCC(=O)O	10.3
Cc1ccc(NC(=O)C(C)N2C(=O)c3ccccc3C2=O)cc1 (stereo not shown)	-1.9
Cc1ccc(C(=O)N/C(=C/c2cccs2)C(=O)NCCc2c[nH]c3ccccc23)cc1	-29.4
CCOc1ccccc1-c1nc(CN2CCCN(C(=O)c3ccco3)CC2)c(C)o1	9.83
CCOc1ccc(/C=C/C(=O)NCc2ccccc2)cc1	-1.45
N#C/C(=C\c1ccco1)Sc1nc2ccccc2s1	0.525
CN(C)CCOC(=O)c1sc2ccccc2c1Cl.Cl	-29.4
O=C(c1ccc2c(=O)n(CCc3ccccc3)c(=O)[nH]c2c1)N1CCN(c2ccc(F)cc2)CC1	17.9
O=C(OCCOc1ccc(Br)cc1)c1ccc(Cl)nc1	10.8
CCOC(=O)C1CCCCN1C(=O)c1ccc2nc(Cc3ccc(OC)cc3)oc2c1 (stereo not shown)	-22.8
CCCCN(C(=O)C1CC(=O)N(c2ccc3c(c2)OCCO3)C1)c1c(N)n(CCCC)c(=O)[nH]c1=O (stereo not shown)	-0.054
CCCCNC(=O)c1onc(CSc2cc(C)ccc2C)c1C(=O)O	1.55

SMILES	hERG current change (%, negative = inhibition) at 10uM [%]
O=C(c1ccccc1)N1CCN(S(=O)(=O)c2cccs2)CC1	-2.06
Cn1c2ccccc2c(=O)c2c(=O)n(C3CCCCC3)c(-c3ccco3)nc21	-53.9
Cl.N=C(c1ccc([N+](=O)[O-])cc1)N1CCCCC1	-10.9
CCCOc1ccc(CCC(=O)N/N=C/c2ccc([N+](=O)[O-])o2)cc1	-19.5
O=C1CCCC/C1=C/NCc1ccc(F)cc1	6.07
Cc1cc(C)n2nc(C(=O)Nc3ccc4c(c3)OCO4)cc2n1	-4.16
Nc1nc(N)c2sc3nc(C(F)(F)F)cc(C(F)(F)F)c3c2n1	-20.2
O=C(NC1(C(F)(F)F)NC(=O)N(Cc2cccnc2)C1=O)c1cccs1 (stereo not shown)	0.457
CCc1nnc(NC(=O)C2(C)COC(c3ccccc3)OC2)s1 (stereo not shown)	20
Cc1ccc(C)c(N(C(=O)c2csnn2)C(C(=O)NC2CCCCC2)c2cccnc2)c1 (stereo not shown)	16.7
O=C(COC(=O)C1CCC1)Nc1cccc(S(=O)(=O)N2CCOCC2)c1	2.53
CCCN1CCC(NC(=S)Nc2ccc([N+](=O)[O-])cc2)CC1	-52.6
CCn1c(CN2CCOCC2)nnc1SCC(=O)Nc1ccccc1C	21.3
Cc1ccc(C2=NN(C(=O)CCCC(=O)O)C(c3ccc4c(c3)OCO4)C2)cc1 (stereo not shown)	24.2
CCOc1cc(NC(=S)NCC2CCCO2)c(OCC)cc1NC(=O)c1ccc(F)cc1 (stereo not shown)	8.01
CCOC(=O)c1c(NC(=O)C2COc3ccccc3O2)sc2c1CC(C)(C)NC2(C)C (stereo not shown)	-12.1
CCn1c(NCc2ccc(OC)cc2)nc2ccccc21	-21.7
CC(=O)N1c2ccc(S(=O)(=O)N3CCC(C(=O)N4CCN(c5ccccc5F)CC4)CC3)cc2CC1C (stereo not shown)	-10.1
Cc1[nH]c2c(Cl)cccc2c1CCN	-0.59
O=C(Nc1ccc(F)cc1)N1CCCCCC1	13.3
c1ccc2nc(-c3ccc(-n4ccnc4)cc3)ccc2c1	-8.56
CCn1nnnc1SCC(=O)Nc1ccc(OCc2ccccc2)cc1	-10.9
COC(=O)C1=C(C)N=C2SCCC(=O)N2C1/C=C/c1ccccc1 (stereo not shown)	-16.8

SMILES	hERG current change (%, negative = inhibition) at 10uM [%]
COCCNC(=O)Cc1cn(C)c2ccccc12	4.15
Nc1nonc1C(=O)NCCNCc1ccccc1	4.52
COc1ccc(CN2CCNC(=O)C2CC(=O)NC2CCCC2)c(OC)c1 (stereo not shown)	2.55
Oc1ccc(/C=N/Nc2ccnc3cc(Cl)ccc23)cc1O	-0.77
COC(=O)C1CCN(C(=O)Nc2ccc(OC)cc2)CC1	1.72
O=C(CCc1ccccc1)NC1C2CC3CC(C2)CC1C3 (stereo not shown)	-9.03
c1cncc(C2CCCCN2)c1 (stereo not shown)	-6.38
COc1ccc2nc(SCC(=O)N3CCN(c4ccc(F)cc4)CC3)c(C#N)cc2c1	-38.5
C=CCN1C(=O)c2ccc(C(=O)N3CCN(S(=O)(=O)c4ccccc4Br)CC3)cc2C1=O	-41.2
COc1ccc(N2C(=O)CC(c3ccc(OC(C)C)cc3)C2=O)cc1 (stereo not shown)	1.78
CCOC(=O)Cc1csc(SCc2nc3ccccc3c(=O)[nH]2)n1	-11.2
COC(=O)c1ccc(C2/C(=C(/O)c3ccc(Cl)cc3)C(=O)C(=O)N2C2CCS(=O)(=O)C2)cc1 (stereo not shown)	2.45
O=C(O)/C=C/C(=O)NC1CCCCCCCCCCC1	-3.8
Cc1ccc(-n2ncc3c2CC(C)(C)CC3NC(=O)CCCN2CCCCC2=O)cc1 (stereo not shown)	-8.82
O=C1C=C(c2ccc(-c3ccccc3)c(F)c2)C[C@@H](c2ccc3c(c2)OCO3)C1	6.42
CCCCOc1ccc(C(=O)Nc2ccc(N3CCN(C)CC3)cc2)cc1	-10.2
COc1ccc(C)cc1NC(=O)CCN1CCN(c2ccccc2)CC1	-10.3
Cc1ccnc(NC(=O)c2cccc3ccccc23)c1	-12.5
CC(C)Nc1nc(Cl)nc(NN(C)c2nc(N(C)C)nc(N(C)C)n2)n1	3.6
COc1cc(C)nc(N2CCCC(C(=O)Nc3cc(Cl)ccc3OC)C2)n1 (stereo not shown)	9.96
CN1CCN(C(=S)NC(=O)/C=C/c2ccccc2Cl)CC1	10.9
Brc1ccc(C2N3CCCN23)cc1 (stereo not shown)	1.12
CC(C)(C)NC(=O)c1nn2c(C(F)(F)F)cc(-c3ccccc3)nc2c1Br	20.8

SMILES	hERG current change (%, negative = inhibition) at 10uM [%]
Cc1ccc2nc(-c3ccc(S(=O)(=O)N4CCCCC4)cc3)cn2c1	14.8
CCOP(=S)(OCC)SCC(=O)NC(C)(CC)C(=O)O (stereo not shown)	-0.514
CCN(CC)CC(=O)N1CCCC(N2CCN(c3cccc(C(F)(F)F)c3)CC2)C1 (stereo not shown)	-10.5
CC(C)(C)NCC(O)COc1cccc2c1CCC(=O)N2.Cl (stereo not shown)	4.47
Cc1ccc(S(=O)(=O)N(CC(=O)NCC2CCCO2)Cc2cccc(C)c2)cc1 (stereo not shown)	-60.5
Cc1ccc(C2CC2/C(=N/O)c2ccc(F)cc2)cc1 (stereo not shown)	19.5
Cc1cc(NC(=O)Cc2ccccc2)nc2c1c(=O)oc1ccccc12	2.06
CC1CN=C(N(C(=S)Nc2ccccc2)c2cccc(C(F)(F)F)c2)S1 (stereo not shown)	8.26
O=C(COc1ccccc1)Nc1ccc(F)cc1	9.12
CC1CCCCN1S(=O)(=O)c1ccc(C(=O)Nc2nnc(C3=COCCO3)o2)cc1 (stereo not shown)	1.04
COC(=O)C1(C)NC(=O)c2ccccc2N1 (stereo not shown)	5.81
Cc1[nH]c2ccccc2c1/C=N/O	30.3
Cc1ccc(S(=O)(=O)NCC(=O)OC(C)C(=O)c2ccccc2)cc1 (stereo not shown)	-2.84
CCc1nn(CC(=O)NC2CCN(Cc3ccccc3)CC2)c(=O)c2cc3cc(F)ccc3n12	-11.8
O=C1NC(=O)N(CC2CCCO2)C(=O)/C1=C/c1cccs1 (stereo not shown)	14.1
COc1cc2c(cc1C1NC(=S)NC(C)=C1C(N)=O)CCCC2 (stereo not shown)	9.6
O=c1c2ccccc2nc(CSc2nnnn2-c2ccccc2)n1-c1ccccc1	2.18
CCC(C(=O)c1ccc2ncccc2c1)c1ccccc1 (stereo not shown)	-52.7
C=CCn1c(=S)[nH]c2nc3c(cc2c1=O)COC(C)(C)C3	12.7
CCC1Oc2ccccc2N(CC(=O)NC2CCCC2)C1=O (stereo not shown)	1.88
Cc1ccnc(N/C=C/C(=O)c2ccc(Br)cc2)c1	23.2
O=S(=O)(c1ccc(Cl)cc1)c1nc(-c2ccco2)oc1N1CCOCC1	-55.4
